# Data taken from the supplement of paper PMC11417369.
# ± gives the standard deviation of the averaged measurements. Some of the results follow.
# Test system: PfAP2-I AP2 domain 3 (GST-tagged)
# Assay: gcPBM binding intensity (ln(normalized median fluorescence intensity)); higher = stronger DNA binding
# Procedure, shortened: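 GST-fused DNA-binding domains of P. falciparum, expressed in E. coli, were applied at about 25 μg on average for 1 h to an Agilent 4 × 180k array of primer-extended double-stranded 36-bp intergenic genomic probes and negative controls. Binding intensity is the highest Masliner-normalised natural-log median intensity across replicate spots of either probe orientation, measured with Alexa488 anti-GST antibody and a 488 nm scan.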
row,Sequence,gcPBM binding intensity (ln)
1,AAAAAAAAAAAAAAGTGTACCTTATTATACTTTAAT [XGTACX_site8439],7.94 ± 0.38
2,AAAAAAAAATTTGTATCACACACGTATTATAAAAAA [CACACA_site6],7.61 ± 0.52
3,ATTATATAATATAATGCATGTGTTAATGAAAAATCT [TGCATGCA_site426],8.05 ± 0.75
4,GATATGTACTAATACACACACATATATATATATATA [CACACA_site1022],9.28 ± 0.28
5,ATAATTTTTATTTGTACACACATACAGATATATTAT [CACACA_site4701],8.09 ± 0.45
6,GATATAGATATTAATTGTACATATTATTTATTGTTA [XGTACX_site846],7.62 ± 0.36
7,TTCTAAAAAGGGTGTACACAAACGAATGGAAAATAA [CACACA_site5483],8.77 ± 0.54
8,TAATTTGTTAAAGGTTCACATATGGTATATACTTCT [XGTACX_negctrl_site292],7.63 ± 0.51
9,TAATAAGGTTACAACAAACACACAAAGGAATATACA [CACACA_site4089],8.07 ± 0.69
10,GATATGATTAACTTATGTTATTCTTGATGGTTTCTT [GTGCAC_negctrl_site411],7.36 ± 0.58
11,TTATAAAACCATGTCATCAACATAGGCACAAAAATG [CACACA_negctrl_site1160],8.05 ± 0.72
12,TATCACAAAATATACTGTACATACAGGCAGTAATAT [XGTACX_site2487],8.11 ± 0.42
13,AAGAATCACCAAATATGTACACACCTTAACATGTTT [XGTACX_site4272],7.95 ± 0.56
14,CCACTGTATGAATGCACACATTCATAGAATTGCTAT [CACACA_site2676],9.5 ± 0.099
15,GATGATTCAATTTATGCACACTAAAAATTAATTATA [CACACA_site4308],9.86 ± 0.44
16,CCATAGATATTTTATACACACATATAATATATTAAT [CACACA_site373],7.68 ± 0.55
17,ATAATCTGACAAATGTGTACACATATATATATATAT [XGTACX_site2379],9.45 ± 0.51
18,AAATAATATATTCCTTGTACTTATTTCAATGAATTC [XGTACX_site7719],7.7 ± 0.47
19,ACCAAAAGGGGATGTAGTACAATATGATTAGAAGAA [XGTACX_site3773],8.04 ± 0.49

row,Sequence,gcPBM binding intensity (ln)
1,AAAATACCCGGACACACACACATATATATATATATT [CACACA_site6137],8.16 ± 0.49
2,TAACTTCAAACAAAATATGGTAAAAGTGGTTGAAAA [CACACA_negctrl_site42],7.88 ± 0.73
3,TAAAGAGTCATGTGGTGTACCTGCTTCACCACATAT [XGTACX_site1288],7.7 ± 0.42
4,TTATTTTTAATATCGGTGCAACAAAAAGGAAAAGAT [GTGCAC_site9482],10.4 ± 0.28
5,TATATATTCATAAAGTGTACATGTTTATATATATAT [XGTACX_site7585],8.975 ± 0.021
6,TATGTATAGATATATACACACTTCTGTGATACGAAA [CACACA_site7003],7.54 ± 0.59
7,ATATGTACATATCTCATGCACTTAACAAAAAAAAAG [GTGCAC_site9898],8.88 ± 0.18
8,TTATTCTACATATATGCATGTGTATGATCTGTTTAT [TGCATGCA_site782],7.79 ± 0.45
9,CATATATACCTATATACACACATATAGATTTATATA [CACACA_site6451],7.61 ± 0.44
10,TGATATTATCTCTTCACACACTCACATACAGACAAA [CACACA_site1246],7.84 ± 0.52
11,AAAATAAAAAAAATGTAAAAGGTTAAAGTGAAATAT [CACACA_negctrl_site350],7.96 ± 0.71
12,ATATAAATGATATGTACACACATTTATATATATAAA [CACACA_site3475],7.86 ± 0.43
13,ATTTATTTATATACAAGTACATAAAAAATTAACTTA [XGTACX_site6170],7.695 ± 0.049
14,TATTTGATAAAAAAAAGTACTAGAATTTCGCTTTTG [XGTACX_site7754],7.32 ± 0.37
15,TAAAAATTAAAATGTTGTACAATGATAAAATATTAT [XGTACX_site7874],7.95 ± 0.45
16,TAAATTGAAATATATTGTACATTATCAACTAAGGGA [XGTACX_site1635],7.66 ± 0.37
17,CTCAACATATACGTAACACACATATAAATATAAATA [CACACA_site7749],7.95 ± 0.38
18,AAATTATAAAATAACTGTACCAATCCTTTTTTTTTA [XGTACX_site2229],7.46 ± 0.63
19,TGTAGTCTGGAGAAAAGTACATAGTATCTGGTAACA [XGTACX_site4940],7.93 ± 0.42

row,Sequence,gcPBM binding intensity (ln)
1,TTTTAATTTTAAAAATGTACTTTTATTATTTTTAAT [XGTACX_site8300],7.63 ± 0.42
2,AATCTAATATAATGCACACATAAAAAAAAATCAAAC [CACACA_site3633],11.1 ± 0.94
3,TATTATATGTAGTTGAGTACATATAAATACATATAT [XGTACX_site7933],7.78 ± 0.34
4,AAATAGTTAAAAAGGCGTACACATAAATAAATAAAT [XGTACX_site2096],8.59 ± 0.33
5,GTATATATATATATATATATAATAGTAACTTTTACT [CACACA_negctrl_site608],8.16 ± 0.4
6,ATGAATAAAAAAGGTGGTACATATATATATATATAT [XGTACX_site7893],9.47 ± 0.26
7,ATACATATATAATTATGTACGTATATTTTATATAAC [XGTACX_site4292],7.89 ± 0.18
8,AAAATAATATAAATAATATAAGTGAGCATATATATA [TGCATGCA_negctrl_site527],7.92 ± 0.72
9,TGTCTTGTAAATTATTGTACTATTTAAAGTATAAAA [XGTACX_site7863],7.71 ± 0.3
10,CATATAGATTTGTTCACACACACACTAAAAAAAAAA [CACACA_site7212],8.08 ± 0.48
11,ATATTCAATTCATACACACACAATTTAAGAATGATA [CACACA_site3883],7.66 ± 0.56
12,AATAAAATTTGCGATGCACACAGAATAGCTAATATG [CACACA_site8983],7.96 ± 0.57
13,TTATTTTACTTTTATGCAACTAAAAATATTGCTATA [XGTACX_negctrl_site277],8.45 ± 0.17
14,ACAAATGTGAGAAAGACACACATATAATAAAAAACA [CACACA_site1156],7.71 ± 0.56
15,TACAGACATACATACACACATACATACAGACATACA [CACACA_site1941],7.83 ± 0.39
16,CACACGCACGAACACACACACACACGCACGCACATA [CACACA_site6305],8.61 ± 0.23
17,TATATTTAATTATTTTGTACTCATATAAAGATGATG [XGTACX_site5488],7.62 ± 0.32
18,AAAAAAAAAATATTTGAACACACGAGGATATATAAA [CACACA_site139],7.82 ± 0.89
